Data published in PubChem BioAssay AID1347417 (National Center for Advancing Translational Sciences (NCATS), 2020).
Hit rate of the full screen: of about 120,000 compounds, about 5,300 (4.4%) were called active. Inconclusive results, whose numbers are uncertain, are shown with a selection of clear calls. Calls come from the whole dose curve; as a rule, active = well fitted inhibition curve with a large enough effect; inconclusive = small, poorly fitted or top-dose-only effect; inactive = no such curve, though single readings can be large or run the other way. Potencies beside an inconclusive call are fits to weak or partial responses and may not hold up.

experiment: qHTS Primary assay for Inhibitors of Plasmodium falciparum Dd2 growth in vitro; note: nearly all actives have a fitted effect of over 65% in size;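 for activity, negative = inhibition: plate controls were DMSO vehicle for no effect and reference drug for full effect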; conditions: P. falciparum Dd2 growth, SYBR Green, 72 h; activity, negative = inhibition: at 28.9 µM (top of the series) unless noted; series mostly up to 28.9 µM
Outline: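 Infected erythrocytes (Dd2, 0.3% parasitemia, 2.5% hematocrit final) are added to compound in RPMI-1640/Albumax II medium, grown 72 h at 37C in low oxygen, then lysed with saponin/Triton-X containing SYBR Green and read by fluorescence.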
Potency is the fitted concentration of half-maximal effect; tags give direction and shape of the fitted curve.

SMILES | outcome | Potency | activity, negative = inhibition
CN1C(=O)c2cccn2CC1C(=O)NCCCN1CCCc2ccccc21 (centres undefined) | inactive |  | 
COC(=O)c1c(-c2cccs2)csc1NC(=O)COc1c(C)ccc(C)c1C |  | inconclusive: 17.8 µM [inhibitor, single point] | 
O=C1CCN(C(=O)[C@@H]2CCCN2C(=O)c2ccoc2)CCCCCCN1 |  |  | inactive: 9.29%
NS(=O)(=O)c1ccc(C(=O)N[C@H](c2cccs2)C2CC(O)C2)cc1 (some centres undefined) |  |  | inactive: -3.91%
CCOc1ccccc1CNC(=O)c1c(C)noc1-c1cccs1 |  | inconclusive: 3.16 µM [inhibitor, single point] | 
COc1ccc(-c2noc(-c3ccc(N4CCN(C)CC4)c([N+](=O)[O-])c3)n2)cc1OC |  | inconclusive: 10 µM [inhibitor, single point] | 
CN1[C@@H](CCC(=O)N2CCC(O)CC2)CNC(=O)[C@@H]2[C@H]1CCN2Cc1ccc(F)cc1 |  |  | inactive: 13.1% [at 44.1 µM]
Cn1nnnc1SCCCNCc1ccccc1OCc1ccccc1Cl |  | inconclusive: 15.8 µM [inhibitor, partial curve, poor fit] | 
Cc1nc2scc(CC(=O)NCc3ccco3)n2c(=O)c1-c1cc(C)n(-c2cc(F)ccc2F)n1 | inactive |  | 
Cc1ccc2nc(-c3ccc(F)cc3)c(CN3CCCC(C(N)=O)C3)cc2c1 (centres undefined) |  | inconclusive: 17.8 µM [inhibitor, single point] | 
CC(C)C(=O)NC1CCCc2c1[nH]c1c(Cl)cccc21 (centres undefined) |  | inconclusive: 17.8 µM [inhibitor, partial curve, poor fit] | 
O=C(Nc1ccccc1CCc1ccccn1)C1CCN(c2cnn(Cc3ccccc3)c(=O)c2)C1 (centres undefined) |  | active: 4.47 µM | 
COc1cc(OC)cc(N2C(=O)N(CC(=O)c3ccc(F)cc3)c3ccccc3S2(=O)=O)c1 |  | active: 8.91 µM | 
COCCNC(=O)[C@H]1C[C@H](Oc2cccnc2)CN1C(=O)NC(C)C |  | inconclusive: 17.8 µM [inhibitor, single point] | 
COc1ccc(-c2noc(Cn3c(=O)c4ccccc4n(CC(=O)Nc4cccc(OC)c4)c3=O)n2)cc1 |  | inconclusive: 11.2 µM [inhibitor, partial curve, poor fit] | 
O=C(Cc1cccc(F)c1)N1CCCCCC1c1nnc(-c2ccccc2)o1 (centres undefined) |  | inconclusive: 2.82 µM [inhibitor, single point] | 
Cc1cccc(NC(=O)c2sc(-n3nc(C)c(Cc4ccc5c(c4)OCO5)c3C)nc2C)c1C |  | inconclusive: 3.55 µM [inhibitor, single point] | 
O=C(COc1ccccc1)N1CC[C@H]2COC(=O)N2c2cc(F)ccc2C1 |  |  | inactive: -4.46% [at 44.1 µM]
Cc1nc(CC2CCN(C(=O)c3ccco3)CC2)n[nH]1 |  |  | inactive: 9.11%
CC(=O)N1CCOc2ccc(CCC(=O)N3CCN(C4CCCCC4)CC3)cc2C1 |  | inconclusive: 7.94 µM [inhibitor, single point] | 
O=[S+]1([O-])NCC2(CCN(Cc3ccccc3C(F)(F)F)CC2)Nc2ccccc21 |  | active: 12.6 µM | 
CCn1ccc(C(=O)N2CCCn3cc(-c4cccc(C#N)c4)nc32)n1 |  | inconclusive: 17.8 µM [inhibitor, single point] | 

SMILES | outcome | Potency | activity, negative = inhibition
COc1ccc(OC)c(NC(=O)Cn2c(=O)c(-c3noc(C)n3)c3n(c2=O)CCCC3)c1 |  |  | inactive: 54.2%
O=C(CN1C(=O)NC(c2ccccc2Cl)C2=C1COC2=O)Nc1cc(F)cc(F)c1 (centres undefined) |  | inconclusive: 8.91 µM [inhibitor, single point] | 
O=C1NC(=NC2CCCCC2)C2(CCCN([S+](=O)([O-])c3cccc(C(F)(F)F)c3)C2)N1c1cc(F)cc(F)c1 (centres undefined) |  | inconclusive: 10 µM [inhibitor, single point] | 
COc1ccc(C(=O)NC2CCN(c3cc(-c4cccs4)[nH]n3)C2)cc1F (centres undefined) |  |  | inactive: -11.2%
FC(F)(F)c1ccc2nc([C@H]3CCN(C4CCOCC4)C3)[nH]c2c1 |  | inconclusive: 10 µM [inhibitor, partial curve] | 
O=C1NCc2ccccc2CC12CCN(Cc1ccc3ccccc3c1)C2 (centres undefined) |  | inconclusive: 15.8 µM [inhibitor, single point] | 
N#Cc1cccc(C(=O)NC2CCCN(c3cc(-c4ccc(Cl)cc4)[nH]n3)C2)c1 (centres undefined) |  | inconclusive: 2.24 µM [inhibitor, partial curve, poor fit] | 
CCOc1ccccc1NC(=O)c1c(NC(=O)C(C)Oc2ccc(Cl)cc2)sc2c1CCCCC2 (centres undefined) |  | active: 10 µM | 
COc1ccccc1C(=O)Nc1c(C(=O)N(C)Cc2ccccc2)sc2nc(C)c(Cl)c(C)c12 |  | inconclusive: 17.8 µM [inhibitor, single point] | 
COc1ccc(CN2CCNc3cnc(Nc4ccccc4)cc3C2)cc1O |  | inconclusive: 31.6 µM [inhibitor, single point] | 
COc1ccc(OC)c(NC(=O)CC2CCCN(c3cn[nH]c(=O)c3)C2)c1 (centres undefined) | inactive |  | 
O=C1N(c2ccccc2)c2ccccc2C12CCN([S+](=O)([O-])c1cccs1)C2 (centres undefined) |  | inconclusive: 10 µM [inhibitor, single point] | 
COC(=O)[C@@H]1Cc2ncn(Cc3ccc(Cl)cc3)c2CN1S(=O)(=O)c1ccc(NC(C)=O)cc1 |  |  | inactive: -7.12%
COCCNC(=O)[C@@H]1C[C@H](Oc2cccnc2)CN1C(=O)c1cccs1 |  |  | inactive: 21.2%
CCCCOc1ccc(CN2C(=O)C(=O)c3cc(Br)cc(C)c32)cc1OC |  | inconclusive: 15.8 µM [inhibitor, single point] | 
CCOc1ccccc1CNC(=O)C1CCCN(c2ncnc3onc(-c4ccc(F)cc4)c23)C1 (centres undefined) |  |  | inconclusive: -54.8% [inhibitor] [at 5.79 µM]
CC(C)c1noc(-c2cn(C3CCCN(C(=O)c4ccc(N(C)C)cc4)C3)nn2)n1 (centres undefined) |  | inconclusive: 1.41 µM [inhibitor, full curve, poor fit] | 
CCn1cc(C(=O)NCc2ccccc2)c(=O)c2cc(S(=O)(=O)N3CCc4ccccc4C3)ccc21 |  | inconclusive: 17.8 µM [inhibitor, single point] | 
CC1CCCCN1C(=O)c1cnc(Cc2c(Cl)cccc2Cl)[nH]c1=O (centres undefined) |  |  | inactive: 3.72%
COc1ccc(Cn2cc(C(=O)c3ccc(C)cc3)c(=O)c3cc(OC)c(OC)cc32)cc1 |  | active: 12.6 µM | 
CC(C)CN1C(=O)COC[C@@H]1[C@H](O)c1ccc(NC(=O)C2CCC2)cc1 |  | inconclusive: 10 µM [inhibitor, partial curve, poor fit] | 
Cn1nccc1C(=O)NCCC1CCN(C(=O)Nc2ccc(F)cc2)CC1 | inactive |  | 

SMILES | outcome | Potency | activity, negative = inhibition
COc1ccccc1N1CCN(C(CNC(=O)C(=O)NCc2ccc(C)cc2)c2cccnc2)CC1 (centres undefined) |  | inconclusive: 17.8 µM [inhibitor, single point] | 
CC(C)(C)c1ccc(OCCn2cc(C(=O)c3ccco3)c3ccccc32)cc1 |  | inconclusive: 17.8 µM [inhibitor, single point] | 
CCCNC(=O)OC[C@H]1C[C@@H]2CCN1C[C@@H]2c1cc(-c2ccc(OC)cc2)nn1C |  | inconclusive: 11.2 µM [inhibitor, single point] | 
COc1ccc(-c2nc(C(C)C)nc3c2CCN(C(=O)c2ccccc2C)CC3)cc1 |  | inconclusive: 11.2 µM [inhibitor, single point] | 
Cc1cn2nc(C(=O)NCc3ccc(Cl)cc3)cc2c(N(C)Cc2ccccc2)n1 |  | inconclusive: 2.24 µM [inhibitor, partial curve, poor fit] | 
O=C(NCc1nnc2c(-c3nc(C4CC4)no3)cccn12)c1cccc2[nH]ccc12 |  | inconclusive: 1 µM [inhibitor, partial curve, poor fit] | 
Cc1cccc(OC2CN(C(=O)c3ccc(CCC(C)(C)O)cc3)C2)c1 |  | inconclusive: 11.2 µM [inhibitor, single point] | 
CCN(Cc1ccccc1)C(=O)c1cc(-c2ccncc2)cn1Cc1ccc(C)cc1 |  | inconclusive: 10 µM [inhibitor, single point] | 
CCOC(=O)C1=C(CN2CCCCC2)NC(=O)NC1c1cc(C)ccc1C (centres undefined) |  | inconclusive: 17.8 µM [inhibitor, single point] | 
Cc1cccc(NC(=O)Cn2ccn3nc4c(c3c2=O)CCCCC4)c1C | inactive |  | 
CC(=O)Nc1ccc(CN2CCC23Cc2ccccc2NC3=O)cc1 (centres undefined) |  |  | inactive: -1.39% [at 44.1 µM]
OCc1cccc(-c2cc3c(cn2)CN(Cc2ccccc2)CCN3)c1 |  | inconclusive: 12.6 µM [inhibitor, single point] | 
CN(C)c1ccc(-n2c(CCC(=O)O)ccc2-c2ccccc2)cc1 |  | inconclusive: 1.12 µM [inhibitor, single point] | 
COc1ccc(S(=O)(=O)N2CCC(n3cnnc3-c3ccccc3)CC2)cc1 |  | inconclusive: 11.2 µM [inhibitor, single point] | 
COc1ccc(C(=O)NC[C@H]2C[C@@H]3CCN2C[C@@H]3c2cc(-c3ccccc3)nn2C)cc1 |  | inconclusive: 28.2 µM [inhibitor, single point] | 
Cc1c(C(=O)N2CCn3nc(C(O)CO)cc3C2)sc2ccccc12 (centres undefined) |  |  | inactive: -5.26%
COc1ccc(C(=O)N2CCN3C(=O)N(C4CCOCC4)C[C@H]3C2)cc1 |  | inconclusive: 0.1 µM [inhibitor, full curve, poor fit] | 
Cc1ccc(C2=CC(c3ccccc3F)n3c(nc4ccccc43)N2)cc1C (centres undefined) |  | inconclusive: 17.8 µM [inhibitor, single point] | 
COc1ccc(C(=O)N2CCC(C(NC(=O)c3ccccc3Cl)C(=O)N3CCCCC3)CC2)cc1 (centres undefined) |  | inconclusive: 0.126 µM [inhibitor, full curve, poor fit] | 
CC(=O)N1CCc2cc(Br)cc(S(=O)(=O)CCC(=O)N3CCN(c4ccc(F)cc4)CC3)c21 |  | inconclusive: 2.82 µM [inhibitor, single point] | 
